# The list shows a part of the results.
# Tested on: T1, Caupolican (Caup) homeodomain DNA-binding domain
# T1 sequence: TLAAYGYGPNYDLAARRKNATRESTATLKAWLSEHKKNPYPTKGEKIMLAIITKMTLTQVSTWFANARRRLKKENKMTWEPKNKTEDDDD
# Assay: PBM E-score (8-mer, recovered from the published 9-mer minima) (E-score (dimensionless, -0.5 to 0.5)); Drosophila protein; higher = stronger relative binding preference, active = 0.31 or more
# How it was run: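 An enrichment score, with higher meaning stronger, expresses relative binding preference for each short DNA word. The protein used was Caup's homeodomain DNA-binding domain (residues 214-303), produced by in vitro transcription and translation and tested at 100 nM on custom-designed protein binding microarrays. The 8-mer values were recovered from published 9-mer scores, each equal to the lower of its two constituent 8-mer scores.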
row,Sequence,PBM E-score
1,ATTCAAAG,inactive: 0.0118
2,CGTAACAG,inactive: 0.154
3,ACGGGGAG,inactive: -0.223
4,CGCGGGTC,inactive: -0.163
5,ATCATGCG,inactive: 0.0113
6,ATCCTACA,inactive: 0.137
7,CGCAAGGC,inactive: -0.208
8,CGGAGCAC,inactive: -0.114
9,GGGCGCAA,inactive: -0.179
10,GGATTATA,inactive: -0.00359
11,AACGTCAC,inactive: -0.00605
12,ATGATCCC,inactive: -0.0587
13,CACCGAAG,inactive: -0.0951
14,GATAAATA,inactive: 0.151
15,TGGTTGAA,inactive: 0.0746
16,GGCTAAAC,inactive: -0.0281
17,AGTTCGAG,inactive: 0.0211
18,AAATTCAC,inactive: 0.077
19,TGGCTAAA,inactive: 0.00869
20,GTAAAAAA,inactive: 0.0383
21,GTGCGCCA,inactive: -0.158
22,AAACGAAG,inactive: -0.00067
23,CGACGTTC,inactive: -0.203

row,Sequence,PBM E-score
1,GATCAAAA,inactive: 0.0532
2,GCGACTCC,inactive: -0.0913
3,TGTCATAA,active: 0.338
4,ATTCCTAA,inactive: 0.0573
5,CTCTGCAA,inactive: -0.0109
6,ATAAGGCC,inactive: -0.133
7,AGATGGGA,inactive: -0.0571
8,AGTCGATA,inactive: -0.00147
9,AGCAATGC,inactive: -0.00851
10,AGACAGAT,inactive: 0.15
11,AACACGGC,inactive: 0.166
12,AGTCTGGG,inactive: -0.147
13,AACTCTTG,inactive: 0.0747
14,ACTCTTCA,inactive: 0.0264
15,CGTCTCTC,inactive: -0.0963
16,ACCGGTTG,inactive: 0.00831
17,ACTCCCCC,inactive: -0.321
18,ACTTGAAC,inactive: 0.132
19,AAGTATAC,inactive: 0.227
20,GTGACGCA,inactive: -0.0129
21,ACGTCTGG,inactive: -0.0138
22,CACTAATG,inactive: 0.0246
23,ACCAGTCT,inactive: 0.00015

row,Sequence,PBM E-score
1,ATTATGTA,active: 0.327
2,ATCTTAGA,inactive: 0.0187
3,CACAGCGA,inactive: 0.0905
4,CCGTTACC,inactive: 0.0115
5,AGACGGAG,inactive: -0.147
6,ATACGCTA,inactive: 0.00481
7,GATATGAA,inactive: 0.0673
8,GTCGAATA,inactive: 0.0987
9,CATAATGG,inactive: 0.0184
10,CAGGAGGA,inactive: -0.0887
11,GAATGGCA,inactive: -0.0357
12,ATCTCGAC,inactive: -0.00436
13,CGCAGATA,inactive: -0.0365
14,ACGAGCGA,inactive: 0.0451
15,GACTACAA,inactive: 0.222
16,TCCGTACA,inactive: 0.124
17,ACAAAAAC,inactive: 0.117
18,GAACATAC,active: 0.331
19,GGCAACAC,inactive: 0.072
20,AGGCAGTA,inactive: -0.0224
21,TAACGAAA,inactive: 0.157
22,GTATCTAA,inactive: 0.188
23,GCGGAAAC,inactive: -0.0869

row,Sequence,PBM E-score
1,ATACCATC,inactive: 0.165
2,ATCTGATG,inactive: 0.072
3,ATAATCGG,inactive: 0.0788
4,CGTCCCCC,inactive: -0.323
5,ACGGTGTA,≥ 0.257
6,AGTCGTTA,inactive: 0.0838
7,CTAGTTGC,inactive: 0.0796
8,AAGAATAT,inactive: 0.0488
9,GCGCACAA,inactive: 0.0432
10,ACTCCTCG,inactive: -0.0284
11,ACAGTGCG,inactive: -0.105
12,GAGCGATA,inactive: -0.00508
13,ACAATTAG,inactive: 0.13
14,CCCGCACC,inactive: -0.178
15,GATCATCC,inactive: -0.0237
16,ATGTTCCG,inactive: 0.255
17,AACCGGAT,≥ 0.084
18,CGGACGGA,inactive: -0.171
19,GGGGTTAA,inactive: -0.11
20,AGAGTTTA,inactive: 0.0386
21,CACGTCCG,inactive: -0.0777
22,AGAGACAT,inactive: 0.203
23,AGTGACGA,inactive: 0.0465

row,Sequence,PBM E-score
1,GAGTGTAC,inactive: 0.121
2,GTAGCACA,inactive: 0.0337
3,AAACTGGT,inactive: 0.0233
4,GACACTGA,inactive: 0.109
5,CCTTGAAC,inactive: -0.0497
6,ACCAATCC,inactive: -0.0418
7,ACAAGGCC,inactive: 0.188
8,CTGATTTA,inactive: 0.138
9,CTTATACA,inactive: 0.11
10,AGCTGGAT,inactive: 0.028
11,GGTAAGAC,inactive: -0.114
12,CTCAAATA,inactive: 0.0843
13,AGAAGTTA,inactive: 0.0385
14,AGGCCCGG,inactive: -0.28
15,CCCCCGAG,inactive: -0.352
16,AGCGTACA,inactive: 0.198
17,ATCATGGG,inactive: -0.0312
18,ACCAGCGT,≥ 0.0151
19,CCCAATCG,inactive: -0.166
